From publication PMC4336329 (PLoS ONE, 2015) come the findings set out here.

About 14,000 (4.5%) of roughly 310,000 compounds showed an effect of 50% or more. Effects have a minus sign here. The list shows a part of the results. Where a SMILES comes first, the peptide text is derived from it. The star is where a group is joined. Piperidide = C1CCN(*)CC1; PhAc = O=C(Cc1ccccc1)*
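Note: peak tail current of the secondary pulse compared with the same well before compound.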

Sequence of human ether-à-go-go-related gene (hERG) potassium channel (Q12809 whole entry, looked up): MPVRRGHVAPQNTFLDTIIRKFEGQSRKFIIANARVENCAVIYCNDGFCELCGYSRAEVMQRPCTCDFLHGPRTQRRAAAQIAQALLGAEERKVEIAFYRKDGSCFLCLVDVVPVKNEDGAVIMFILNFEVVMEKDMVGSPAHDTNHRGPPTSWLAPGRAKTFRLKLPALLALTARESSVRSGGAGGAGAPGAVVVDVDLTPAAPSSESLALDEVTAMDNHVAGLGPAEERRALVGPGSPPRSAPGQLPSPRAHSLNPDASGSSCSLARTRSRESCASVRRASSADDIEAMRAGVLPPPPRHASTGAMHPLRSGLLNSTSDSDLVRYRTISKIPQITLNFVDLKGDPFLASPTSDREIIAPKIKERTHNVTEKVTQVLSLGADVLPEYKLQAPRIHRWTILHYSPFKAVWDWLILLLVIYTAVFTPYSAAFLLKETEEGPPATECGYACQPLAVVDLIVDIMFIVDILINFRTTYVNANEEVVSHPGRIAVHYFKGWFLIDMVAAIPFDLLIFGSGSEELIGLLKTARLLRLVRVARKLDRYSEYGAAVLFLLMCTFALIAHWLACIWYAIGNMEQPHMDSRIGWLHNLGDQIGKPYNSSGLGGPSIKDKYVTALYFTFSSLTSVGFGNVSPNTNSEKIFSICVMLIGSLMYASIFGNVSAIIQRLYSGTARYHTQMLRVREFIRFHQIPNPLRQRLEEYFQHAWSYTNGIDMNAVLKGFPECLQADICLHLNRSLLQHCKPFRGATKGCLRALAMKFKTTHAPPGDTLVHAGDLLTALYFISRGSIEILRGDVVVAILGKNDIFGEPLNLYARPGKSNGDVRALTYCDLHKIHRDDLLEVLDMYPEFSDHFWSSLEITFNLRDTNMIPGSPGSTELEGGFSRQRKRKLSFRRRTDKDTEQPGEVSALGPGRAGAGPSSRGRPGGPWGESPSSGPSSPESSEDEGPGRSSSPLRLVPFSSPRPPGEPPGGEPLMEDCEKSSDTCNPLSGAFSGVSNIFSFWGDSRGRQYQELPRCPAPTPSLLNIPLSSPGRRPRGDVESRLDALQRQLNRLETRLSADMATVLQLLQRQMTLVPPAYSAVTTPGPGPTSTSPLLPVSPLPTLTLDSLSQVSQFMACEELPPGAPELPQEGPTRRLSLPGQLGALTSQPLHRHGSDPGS

This experiment concerns the target human ether-à-go-go-related gene (hERG) potassium channel (human, UniProt Q12809). In words: primary screen, population patch clamp on CHO cells stably expressing hERG.
In the case of `O=C(NNC(=O)C12CC3CC(CC(C3)C1)C2)c1cccc([N+](=O)[O-])c1`, the “hERG current change (%, negative = inhibition) at 10uM” value came out at 3.97%.
Next, `C=CCn1c(SCC(=O)Nc2cc(OC)c(NC(=O)c3ccco3)cc2OC)nnc1-c1ccncc1`: -10.2%; `O=C(c1cnc2n(c1=O)CCS2)N1CCN(c2ccc([N+](=O)[O-])cc2)CC1`: -63%.
Next, `Cc1ccc(-c2nc3ncccn3c2NC2CCCCC2)o1`: -37.7%.
`O=C(Cc1ccc(S(=O)(=O)N2CCOCC2)s1)NCCOc1ccccc1`: the “hERG current change (%, negative = inhibition) at 10uM” value is reported as -8.35%.
Next, `CCOC1=NN(c2ccc(Cl)cc2)C(=O)/C1=C\N(C)C`: -29.6%; `O=C(Nc1ccc(F)cc1)C1CCN(C(=O)NCc2ccccc2)CC1`: -15.4%; `COc1ccc2nc(COC(=O)c3cccc([N+](=O)[O-])c3)c(C(C)=O)[n+]([O-])c2c1`: 12.8%.
Then `CC(C)(C)NC(=O)NC(=O)COC(=O)c1ccc(OC(F)F)cc1`, with -0.651%.
Next, `C[n+]1ccc(-c2cc[n+](C)cc2)cc1.[Cl-]`: -0.326%; `O=C(O)c1ccc(CSc2n[nH]c(-c3ccco3)n2)cc1`: 3.26%; `Cn1c(=O)n(C)c2cc([N+](=O)[O-])c(N3CCN(C(=O)c4ccccc4)CC3)cc21`: -36.1%.
As for `O=C(CSc1nc2ccccc2n1CC(=O)N1CCCC1)NCc1ccc2c(c1)OCO2`, the “hERG current change (%, negative = inhibition) at 10uM” value was -15.9%.
Consider `Cc1cc(N/N=C/c2ccc(O)cc2O)nc(N2CCOCC2)n1`, for which the “hERG current change (%, negative = inhibition) at 10uM” value is given as -14.3%.
Next, `COc1ccc(Nc2nnc(SCC(=O)c3cc(C)n(CC4CCCO4)c3C)s2)cc1` (centres unmarked): 4.82%.
Then `COc1ccc(-c2nc(-c3ccncc3)no2)cc1`, with 10.5%; and `Cc1ccc(CN2C(=O)C(C)Oc3ccccc32)cc1` (centres unmarked), with 1.89%.
Next, `CC(=O)c1cccc(OCc2cc(C(=O)N(C)CCC3CCOCC3)no2)c1`: -3.01%; `O=C(c1ccc2c(=O)n3c(nc2c1)CCCCC3)N1CCN(c2ccccc2F)CC1`: -13.6%.
On to `C[N+]1(C)CCc2cc3c(cc2[C@H]1[C@@H]1OC(=O)c2c1ccc1c2OCO1)OCO3.[Br-]`, for which the “hERG current change (%, negative = inhibition) at 10uM” value is reported as 24.4%.
Next, `COC(=O)[C@H]1C2CCC(C(=O)OC)(CC2)[C@H]1C(=O)OC`: 18.9%; `Cn1c(=O)n(C)c2cc([N+](=O)[O-])c(N3CCNCC3)cc21`: 5.58%.
Next, `COc1cccc(CC(=O)NC2CCCN(Cc3ccccc3F)C2)c1` (centres unmarked): -5.72%; `CCCc1ccc(C2C3=C(CC(C)(C)CC3=O)NC3=C2C(=O)c2ccccc23)cc1` (centres unmarked): -10.5%; `O=C(Nc1cccc(S(=O)(=O)N2CCCCCC2)c1)C1CCC1`: -57.4%.
As to `CCc1ccc(C(C(=O)NCc2ccc(OC)cc2)N(CCOC)C(=O)Cc2cccs2)cc1` (centres unmarked), the “hERG current change (%, negative = inhibition) at 10uM” value is -40.1%.
Consider `Cc1ccc(C(=O)Sc2cccccc2=O)cc1`, for which the “hERG current change (%, negative = inhibition) at 10uM” value is -2.53%.
Next, `Cc1ccc(Cl)cc1N(CC(=O)NCc1ccc2c(c1)OCO2)S(C)(=O)=O`: -29.6%; `COc1ccc(OC)c(N(CC(=O)Nc2ccccc2)S(C)(=O)=O)c1`: 11.4%.
Next, `COC(=O)CCC(=O)OC1(C)C(=O)C=C2C=C(C3CC3)N(Cc3ccccc3)C=C2C1=O` (centres unmarked): -2.31%; `O=C(COC(=O)c1sc2cc(F)ccc2c1Cl)Nc1ncc(Cl)cc1Cl`: 10.3%.
`Cc1ccc(S(=O)(=O)NCC(c2ccco2)N2CCc3ccccc32)cc1` (centres unmarked): the “hERG current change (%, negative = inhibition) at 10uM” value was -13.6%.
Then `COc1ccc(-c2cn[nH]c2-c2ccc(O)cc2O)cc1`, with 6.35%; and `COC(=O)c1cccc(S(=O)(=O)N2CCC(n3nnc4cc(F)ccc43)CC2)c1`, with -34.3%.
Then `COc1cccc2cc(C(N)=O)oc12`, with 15.4%; and `COc1cc(N=Cc2c(CO)cnc(C)c2O)cc(OC)c1OC`, with 13.5%.
Then `O=C(Nc1ccc(Br)cc1)C1CCCN(S(=O)(=O)c2cccnc2)C1` (centres unmarked), with -29.8%; and `O=C(CNC(=O)Cc1ccccc1)NCC(=O)N1CCCCC1` (PhAc-Gly-Gly-Piperidide), with 6.06%; and `CC(C)(C)C(=O)C(Cc1ccccc1)n1cncn1` (centres unmarked), with 5.96%.
As for `O=C(CC1OC(=O)c2ccccc21)Nc1cc(Cl)ccc1N1CCCC1` (centres unmarked), the “hERG current change (%, negative = inhibition) at 10uM” value is recorded as -8.18%.
In the case of `CC(c1ccccc1)N1C(=O)/C(=C/c2ccncc2)SC1=S` (centres unmarked), the “hERG current change (%, negative = inhibition) at 10uM” value was 3.24%.
Then `C=CCn1c(SCC(=O)N2CCOCC2)nc2c([nH]c3ccccc32)c1=O`, with -52.9%; and `C/C(Cn1ncc(N2CCOCC2)c(Cl)c1=O)=N\O`, with 18.3%.
Then `O=C(NC1CC1)C1CCCN(C(=O)Nc2ccc(F)cc2)C1` (centres unmarked), with 0.869%.
